Test results taken from the supplement of paper PMC10369915.
The list shows a part of the results. Rule as the data show it: active = 3.2 or more and inactive = the rest. Most of these values are background signal.

Legend:
Test in all cases: enrichment score (SH2-bound / input frequency) (ratio); bacterial display of known human phosphotyrosine sites (pTyr-Var adds point mutants) read by sequencing; higher = stronger binding; tyrosines were phosphorylated by kinases first
Conditions in all cases: peptide library: pTyr-Var
SHP2 C-SH2 domain E139D = biological target: SHP2 C-SH2 domain E139D
[1] = biological target: SHP2 C-SH2 domain wild-type
SHP2 N-SH2 domain L43F = biological target: SHP2 N-SH2 domain L43F
SHP2 N-SH2 domain T42A = biological target: SHP2 N-SH2 domain T42A
SHP2 N-SH2 domain T52S = biological target: SHP2 N-SH2 domain T52S
[2] = biological target: SHP2 N-SH2 domain wild-type

Measured: enrichment score
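Also: displayed peptides selected on beads carrying the immobilized SH2 domain, with library peptides lacking any tyrosine serving as negative controls.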

IEEGTYGVAYR [CDK11B_Y449_V452A]
inactive: SHP2 C-SH2 domain E139D 0.67 | [1] 0.759 | SHP2 N-SH2 domain L43F 0.695 | SHP2 N-SH2 domain T42A 0.657 | SHP2 N-SH2 domain T52S 0.638 | [2] 0.781

VATRWYWSPEL [CDKL5_Y177_R178W]
inactive: SHP2 C-SH2 domain E139D 1.52 | [1] 1.68 | SHP2 N-SH2 domain L43F 1.59 | SHP2 N-SH2 domain T42A 1.57 | SHP2 N-SH2 domain T52S 1.31 | [2] 1.42

VATRWYPSPEL [CDKL5_Y177_R178P]
inactive: SHP2 C-SH2 domain E139D 0.945 | [1] 0.987 | SHP2 N-SH2 domain L43F 0.924 | SHP2 N-SH2 domain T42A 1.07 | SHP2 N-SH2 domain T52S 0.831 | [2] 0.939

DGMADCSDPSY [CDC5L_Y459_Y459C]
inactive: SHP2 C-SH2 domain E139D 0.488 | [1] 0.442 | SHP2 N-SH2 domain L43F 0.406 | SHP2 N-SH2 domain T42A 0.493 | SHP2 N-SH2 domain T52S 0.544 | [2] 0.744

IEEGTYGVVYR [CDK11B_Y449]
inactive: SHP2 C-SH2 domain E139D 0.692 | [1] 0.755 | SHP2 N-SH2 domain L43F 0.81 | SHP2 N-SH2 domain T42A 0.557 | SHP2 N-SH2 domain T52S 0.8 | [2] 0.862

TYGVVYKARNK [CDK2_Y19]
inactive: SHP2 C-SH2 domain E139D 0.311 | [1] 0.433 | SHP2 N-SH2 domain L43F 0.48 | SHP2 N-SH2 domain T42A 0.412 | SHP2 N-SH2 domain T52S 0.65 | [2] 0.457

AAYNRYDQERF [CDC73_Y293]
inactive: SHP2 C-SH2 domain E139D 0.783 | [1] 0.556 | SHP2 N-SH2 domain L43F 0.773 | SHP2 N-SH2 domain T42A 0.551 | SHP2 N-SH2 domain T52S 0.678 | [2] 0.645

SLQSEYVHYGG [CDC14A_Y591]
inactive: SHP2 C-SH2 domain E139D 0.536 | [1] 0.49 | SHP2 N-SH2 domain L43F 0.54 | SHP2 N-SH2 domain T42A 0.457 | SHP2 N-SH2 domain T52S 0.505 | [2] 0.443

TFGVAYRAKDK [CDK11B_Y453_V452A_YF]
inactive: SHP2 C-SH2 domain E139D 0.444 | [1] 0.472 | SHP2 N-SH2 domain L43F 0.42 | SHP2 N-SH2 domain T42A 0.425 | SHP2 N-SH2 domain T52S 0.4 | [2] 0.476

TSGVVYKARNK [CDK2_Y19_Y15S]
inactive: SHP2 C-SH2 domain E139D 0.466 | [1] 0.44 | SHP2 N-SH2 domain L43F 0.515 | SHP2 N-SH2 domain T42A 0.565 | SHP2 N-SH2 domain T52S 0.452 | [2] 0.516

SLQSEYVHFGG [CDC14A_Y591_YF]
inactive: SHP2 C-SH2 domain E139D 0.827 | [1] 0.724 | SHP2 N-SH2 domain L43F 0.819 | SHP2 N-SH2 domain T42A 0.573 | SHP2 N-SH2 domain T52S 0.946 | [2] 0.921

IGEGTSGVVYK [CDK2_Y15_Y15S]
inactive: SHP2 C-SH2 domain E139D 0.719 | [1] 0.801 | SHP2 N-SH2 domain L43F 0.736 | SHP2 N-SH2 domain T42A 0.644 | SHP2 N-SH2 domain T52S 0.684 | [2] 1.11

IGERTYGQVYK [CDK13_Y716_G714R]
inactive: SHP2 C-SH2 domain E139D 0.67 | [1] 0.6 | SHP2 N-SH2 domain L43F 0.535 | SHP2 N-SH2 domain T42A 0.585 | SHP2 N-SH2 domain T52S 0.579 | [2] 0.606

ANYTEYVATRW [CDKL5_Y171]
inactive: SHP2 C-SH2 domain E139D 0.921 | [1] 0.931 | SHP2 N-SH2 domain L43F 0.872 | SHP2 N-SH2 domain T42A 0.812 | SHP2 N-SH2 domain T52S 0.803 | [2] 0.901

ANFTEYVATRW [CDKL5_Y171_YF]
inactive: SHP2 C-SH2 domain E139D 0.8 | [1] 0.823 | SHP2 N-SH2 domain L43F 0.881 | SHP2 N-SH2 domain T42A 0.845 | SHP2 N-SH2 domain T52S 0.88 | [2] 0.918

IGEGTYGVLYK [CDK2_Y15_V18L]
inactive: SHP2 C-SH2 domain E139D 0.966 | [1] 0.888 | SHP2 N-SH2 domain L43F 1.04 | SHP2 N-SH2 domain T42A 0.836 | SHP2 N-SH2 domain T52S 0.807 | [2] 1.13

PAVGIYNGNIN [CDCP1_Y707_D709G]
inactive: SHP2 C-SH2 domain E139D 0.747 | [1] 0.868 | SHP2 N-SH2 domain L43F 0.654 | SHP2 N-SH2 domain T42A 0.539 | SHP2 N-SH2 domain T52S 1.09 | [2] 1.38

SSKILYHIIKG [CDH17_Y489]
inactive: SHP2 C-SH2 domain E139D 1.61 | [1] 2.47 | SHP2 N-SH2 domain L43F 1.3 | SHP2 N-SH2 domain T42A 1.95 | SHP2 N-SH2 domain T52S 1.45 | [2] 1.59
